According to PubChem BioAssay AID485364 (National Center for Advancing Translational Sciences (NCATS), 2010):
In all, about 360,000 compounds went through this assay and about 11,000 (3.1%) were called active. The shares of active, inactive and inconclusive entries below differ from those in the screen. The call rests on the fitted dose curve; in most records, active means well fitted inhibition curve with a large enough effect; inconclusive means small, poorly fitted or top-dose-only effect; inactive means no such curve, though single readings can be large or run the other way. Potencies of inconclusive entries are left out as doubtful fits.
Further: nearly all actives have a fitted effect of over 60% in size.
Potency means the concentration at half of the fitted maximal effect; tags describe the fitted curve by direction and shape.

The compounds below were run against Schistosoma mansoni thioredoxin glutathione reductase (TGR) (UniProt Q962Y6) (assay: qHTS Assay for the Inhibitors of Schistosoma Mansoni Peroxiredoxins). Conditions: purified TGR, DTNB reduction, TNB absorbance 405 nm; series mostly up to 114 µM.
Method in brief: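 Kinetic colorimetric format: TGR-catalysed, NADPH-driven DTNB reduction monitored via TNB absorbance. Enzyme dispensed at 20 nM; compound exposure 15 min at room temperature before reaction start.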
Cc1ccc(/C=N/NC(=O)Cn2nnc(N)n2)cc1 was tested, and the Potency was “inactive”.
With Cc1cc(C)cc(-n2cc(C(=O)O)c(=O)cc2C)c1 the Potency was inconclusive [inhibitor, single point].
In the case of O=C(COC(=O)c1ccc([N+](=O)[O-])s1)Nc1cccc(S(=O)(=O)NC2=NCCCCC2)c1, the Potency is reported as inconclusive [inhibitor, partial curve].
With Oc1c(Br)cc(Br)cc1-c1nc2ccccc2s1 the Potency was active: 44.7 µM.
In the case of CCOc1ccccc1Oc1cn[nH]c1-c1ccc(O)cc1O, the Potency is reported as “inactive”.
Cn1ncc(Cl)c1C(=O)N1CCN(S(=O)(=O)c2ccc(Cl)s2)CC1 was tested, and the Potency was inconclusive [inhibitor, full curve, poor fit].
For CC(C)C(CCNC(=O)CC(Cc1ccccc1)c1ccco1)c1ccco1 (configuration not stated), the Potency was inconclusive [inhibitor, partial curve, poor fit].
In the case of CSc1nnc2c3cc(C)ccc3n(Cc3ccccc3)c2n1, the Potency is reported as inconclusive [inhibitor, single point].
Cc1ccc(S(=O)(=O)N2CCN(C(=O)CN3CCOCC3)C2C(C)C)cc1 (configuration not stated) was tested, and the Potency was inconclusive [inhibitor, partial curve, poor fit].
With COc1cccc(NC(=O)CC2C(=O)OCCN2Cc2ccccc2)c1 (configuration not stated) the Potency was “inactive”.
Cc1ccc(S(=O)(=O)c2c(N)n(Cc3ccco3)c3nc4ccccc4nc23)cc1 was tested, and the Potency was inconclusive [inhibitor, full curve].
In the case of Cc1cc(C)cc(N2C(=O)NC(=O)/C(=C\c3cccn3-c3ccc(Cl)cc3)C2=O)c1, the Potency is reported as inconclusive [inhibitor, full curve].
With O=C(CNc1ccccc1F)Nc1cccc2ccccc12 the Potency was inconclusive [inhibitor, partial curve, poor fit].
With CC(C)COc1cccc(C(=O)NC(=S)NCc2cccnc2)c1 the Potency was inconclusive [inhibitor, partial curve].
For O=C(CCn1nnnc1CN1CCOCC1)N1CCC(c2cccc(Cl)c2)C1 (configuration not stated), the Potency was inconclusive [inhibitor, partial curve].
With CCCNC(=O)CSc1nnc(-c2ccco2)n1C the Potency was inconclusive [inhibitor, single point].
With CCCNC(=O)NC(=O)CSc1nnc(-c2c[nH]c3ccccc23)o1 the Potency was “inactive”.
With CC(C)CCNC(=S)Nc1ccccn1 the Potency was active: 44.7 µM.
For O=S(=O)(c1ccc2ccccc2c1)n1nc(-c2ccco2)nc1NCc1cccc(Cl)c1, the Potency was “inactive”.
For CCCn1c(O)c(N=NC(=O)c2ccco2)c2ccccc21, the Potency was “inactive”.
CCOc1ccc(NC(=O)CN(C)C(=O)C2CC(=O)N(c3ccc4c(c3)OCCO4)C2)cc1OCC (configuration not stated) was tested, and the Potency was “inactive”.
With Oc1c(I)cc(Cl)c2cccnc12 the Potency was inconclusive [inhibitor, partial curve, poor fit].
In the case of Cc1ncc(C[n+]2csc(C)c2C)c(N)n1, the Potency is reported as active: 25.1 µM.
With Cn1c2c(c(=O)n(C)c1=O)CN(CCCN1CCOCC1)CN2 the Potency was inconclusive [inhibitor, partial curve].
CN1CCN(Cc2nc3ccccc3n2C)CC1CCO (configuration not stated) was tested, and the Potency was inconclusive [inhibitor, partial curve].
In the case of COc1cccc(CN2CC(C(=O)NCc3ccc(C)o3)CCC2=O)c1 (configuration not stated), the Potency is reported as inconclusive [inhibitor, partial curve, poor fit].
With O=C(NCc1ccncc1)c1cccc(S(=O)(=O)Nc2ccc(F)cc2)c1 the Potency was inconclusive [inhibitor, partial curve, poor fit].
With CN(C)C(=O)CSc1nnc(CCN)o1 the Potency was inconclusive [inhibitor, single point].
For O=c1c(-c2ccco2)[n+]([O-])c2ccccc2n1OCc1ccccc1, the Potency was active: 10 µM.
For COc1ccc(NC(=O)c2cc3ccccc3o2)cc1OC, the Potency was inconclusive [inhibitor, partial curve, poor fit].
With CCOC(=O)c1c(NC(=O)COC(=O)CC(NC(C)=O)c2ccccc2)sc(C(=O)NC)c1C (configuration not stated) the Potency was inconclusive [inhibitor, single point].
CC(=O)NC(Cc1c[nH]c2ccccc12)C(=O)OCC(=O)Nc1ccc2c(c1)OCO2 (configuration not stated) was tested, and the Potency was active: 10 µM.
In the case of O=C(O)CCc1nc2ccccc2n(CCc2ccccc2)c1=O, the Potency is reported as active: 39.8 µM.
For Cc1cc(=O)oc2c3c(cc(OCC(=O)Nc4cccnc4)c12)OC(C)(C)CC3, the Potency was “inactive”.
With COc1cc(C(=S)N2CCOCC2)ccc1OC(=O)/C=C/c1ccco1 the Potency was inconclusive [inhibitor, partial curve].
With O=Cc1ccc2oc3nc4n(c(=O)c3c(=O)c2c1)CCCS4 the Potency was “inactive”.
For COc1cc(NC(=O)CCS(=O)(=O)c2nc(-c3cccs3)cc(C(F)(F)F)n2)cc(OC)c1OC, the Potency was inconclusive [inhibitor, partial curve].
In the case of Cc1oc(-c2ccccc2F)nc1CS(=O)(=O)CC(=O)NCc1ccco1, the Potency is reported as active: 22.4 µM.
With Nc1ccc(Nc2ccccc2)cc1 the Potency was inconclusive [inhibitor, partial curve].
COc1ccc(CC(=O)Nc2nnc(CC(C)C)s2)cc1S(=O)(=O)N1CCOCC1 was tested, and the Potency was “inactive”.
In the case of CC(=O)Oc1oc(-c2ccccc2)nc1/C=N/c1ccccn1, the Potency is reported as active: 28.2 µM.
For O=C(CSc1nc2ccccc2[nH]1)c1ccco1, the Potency was inconclusive [inhibitor, partial curve].
In the case of Cc1ccc(S(=O)(=O)/N=C2\C=C(Nc3cccc(C(=O)O)c3)C(=O)c3ccccc32)c(C)c1, the Potency is reported as inconclusive [inhibitor, partial curve].
With COc1ccccc1NC(=O)C1=C(C)Nc2ncnn2C1c1ccc(C)o1 (configuration not stated) the Potency was inconclusive [inhibitor, partial curve].
O=C(NCC(=O)N(Cc1cccs1)C(C(=O)NC1CCCC1)c1cccnc1)c1ccco1 (configuration not stated) was tested, and the Potency was inconclusive [inhibitor, partial curve].
C/C(=N\NC(=O)c1cccc(C)c1O)c1ccc(NC(=O)Cc2ccccc2)cc1 was tested, and the Potency was “inactive”.
For O=[N+]([O-])c1ccc(-c2nc(=S)c3c(o2)CCCC3)cc1, the Potency was inconclusive [inhibitor, partial curve].
Fc1ccc(-c2noc3ncnc(NC4CCCCC4)c23)cc1 was tested, and the Potency was “inactive”.
In the case of Fc1ccc(C2CCNCC2COc2ccc3c(c2)OCO3)cc1 (configuration not stated), the Potency is reported as inconclusive [inhibitor, partial curve].
In the case of COc1cc(-c2ccc(Nc3ccccc3C(=O)O)c(OC)c2)ccc1Nc1ccccc1C(=O)O, the Potency is reported as active: 44.7 µM.
COc1cccc(NC(=O)CSc2nc(=O)n(CCN(C)C)c3c2CCCC3)c1 was tested, and the Potency was “inactive”.
With CC(C)NC(=O)/C(C#N)=C/c1ccc(N(C)C)o1 the Potency was inconclusive [inhibitor, partial curve].
With COC(=O)C/C=N/N=C1/NC(=O)/C(=C/C(=O)O)S1 the Potency was inconclusive [inhibitor, partial curve].
With COc1ccc(CCNC(=O)C(=O)NCC(c2ccco2)S(=O)(=O)c2ccc(F)cc2)cc1 (configuration not stated) the Potency was inconclusive [inhibitor, full curve].
For COc1cccc(-c2csc(NC3OC(=O)c4c3ccc(OC)c4OC)n2)c1 (configuration not stated), the Potency was active: 39.8 µM.
In the case of Fc1cccc(-c2cc3nc(-c4ccccc4)cc(N4CCC5(CC4)OCCO5)n3n2)c1, the Potency is reported as “inactive”.
For O=C1c2ccccc2C(Nc2cccc(C(F)(F)F)c2)N1Cc1ccco1 (configuration not stated), the Potency was “inactive”.
In the case of O=C1CCCC2=C1C(c1ccc(O)c(O)c1)c1c(ccc3ncccc13)N2 (configuration not stated), the Potency is reported as inconclusive [inhibitor, partial curve].
With Cc1ccc(Cn2cccc(NC(=O)c3ccco3)c2=O)cc1 the Potency was inconclusive [inhibitor, partial curve].
COc1ccccc1C(=O)NCC(=O)OCCCOC(=O)CNC(=O)c1ccccc1OC was tested, and the Potency was inconclusive [inhibitor, partial curve].
With COc1ccccc1Nc1nc(N)nc(CSc2nncn2C)n1 the Potency was inconclusive [inhibitor, partial curve].
In the case of OCCCc1ccc(O)c(O)c1, the Potency is reported as active: 3.55 µM.
CCOc1cccc(=O)c2c(C)n(CC3CCCO3)c(C)c12 (configuration not stated) was tested, and the Potency was inconclusive [inhibitor, partial curve].
With Cc1cc(C)c2cc(CN(CCO)Cc3nnnn3Cc3ccc(F)cc3)c(=O)[nH]c2c1 the Potency was inconclusive [inhibitor, full curve].
O=C(O)C1=C[C@H](c2ccccc2)C[C@H](OCc2ccc(CO)cc2)O1 was tested, and the Potency was inconclusive [inhibitor, partial curve].
With CC(=O)c1cccc(NC(=S)NC(=O)c2cccc(C)c2)c1 the Potency was active: 28.2 µM.
With CCCn1c(SCC(=O)N2CCCc3ccccc32)nnc1-c1ccco1 the Potency was inconclusive [inhibitor, full curve, poor fit].
With CCC(C)(C)n1nnnc1C(c1ccccc1)N1CCc2ccccc2C1 (configuration not stated) the Potency was inconclusive [inhibitor, partial curve].
With Cc1ccccc1-c1noc(CCC(=O)NCc2ccco2)n1 the Potency was active: 28.2 µM.
For CC(=O)NCC(=O)N(Cc1ccco1)C1(C(=O)NC2CCCCC2)CCCCC1, the Potency was inconclusive [inhibitor, partial curve, poor fit].
COCCNC(=O)CS(=O)Cc1nc(-c2ccccc2C)oc1C (configuration not stated) was tested, and the Potency was active: 39.8 µM.
COc1cc(/C=C(\C#N)c2nc3ccccc3o2)ccc1O was tested, and the Potency was “inactive”.
